Read-outs that look alike come from different tables or passages of the source. These are yes or no findings as the source states them, for the method shown. In cells and extracts the contact can be indirect. Some results given as binding are weak or reduced against the parent protein; the word gives no strength. For some of these results: Where a sequence is shown, tags or fusion partners need not be part of it. One block for each molecule: values may come before it.
Experiments:
Assay in all cases: co-IP; HEK293T cells transiently co-transfected with Flag- and GFP-tagged proteins; whole cell extracts precipitated with anti-Flag, anti-EGFP or control IgGs on protein G-Sepharose o/n; western blot
[1] = target: GFP-CDK1 (mouse) (UniProt P11440)
[2] = target: Flag-PSMA8 (mouse) (UniProt Q9CWH6)
[3] = target: Flag-PSMA8 (mouse) (UniProt Q9CWH6); remark: listed apart in the source
[4] = target: T1, Flag-SYCE2 (mouse) (UniProt Q505B8)
T1 sequence: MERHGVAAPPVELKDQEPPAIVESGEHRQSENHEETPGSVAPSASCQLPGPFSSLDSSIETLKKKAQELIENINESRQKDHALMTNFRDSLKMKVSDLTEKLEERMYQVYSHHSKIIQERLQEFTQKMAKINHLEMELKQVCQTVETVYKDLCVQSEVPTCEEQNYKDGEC

Amino acid sequences for entries named in this document (tags omitted).
UniProt P11440: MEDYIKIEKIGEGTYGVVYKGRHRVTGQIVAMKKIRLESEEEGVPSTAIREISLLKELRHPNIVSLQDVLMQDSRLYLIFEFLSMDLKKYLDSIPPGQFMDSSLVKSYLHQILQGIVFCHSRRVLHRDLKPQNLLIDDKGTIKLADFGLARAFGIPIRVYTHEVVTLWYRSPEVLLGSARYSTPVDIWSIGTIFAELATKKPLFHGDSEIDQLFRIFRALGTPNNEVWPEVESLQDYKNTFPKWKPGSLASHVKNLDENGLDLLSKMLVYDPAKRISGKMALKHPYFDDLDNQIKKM
UniProt Q9CWH6: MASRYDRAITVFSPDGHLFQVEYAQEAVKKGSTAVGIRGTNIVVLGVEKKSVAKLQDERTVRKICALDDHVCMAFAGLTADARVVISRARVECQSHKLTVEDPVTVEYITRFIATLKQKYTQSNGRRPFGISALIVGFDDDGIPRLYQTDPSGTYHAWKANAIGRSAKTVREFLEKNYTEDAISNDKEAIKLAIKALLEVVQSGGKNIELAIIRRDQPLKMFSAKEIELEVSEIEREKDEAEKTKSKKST

- binding [1]: binds
Molecule: Flag-PSMA8 (from UniProt Q9CWH6 1-250)

- binding [2]: binds
Molecule: GFP-CDK1 (from UniProt P11440 1-297)

- binding [3]: no binding
- binding [4]: binds
B1: GFP-TEX12 (protein, UniProt Q9CR81 1-123)
chain: MMANHLVKPDSRNCKRARELEPQVSDSPQVSSLGKSESSLSEASGLFYKEEALEKDLSDMSKEINLMLSTYAKILSERAAVDASYIDEIDGLFKEANIIENFLVQKREFLKQRFTVITNTLHK

- binding [3]: no binding
B2: GFP-SYCE2 (protein, UniProt Q505B8 1-171)
chain: T1 sequence

- binding [3]: binds
B3: GFP-SIX6OS1 (protein, UniProt Q9CTN5 1-574)
chain: MNDNLFVSLDRLLLEFVFQYEQDISIKEDTIQRINKCLESIKENKANVSKLREAINKVDEDIAFHYKHSKEIKDSCSNWKPTCDVFHKHEDYIKDQLTAYQETNEKDKKMYHDYICQYEDVLKQYQLKYSETRFSCKYYEKKKEHEEIKNRVLACTEQLQLNETILMKFLVPAPFPSLTKWTLYVVNLRYRTQDILKRANNFTKRSFELEKEADDMEIEINSLNKMARLFESKTFSEALDEKNKNTEKRKEFEERIFEKDEQVSNRSSQNSQLLLPCESQKFVRNMNSSEARVTDKKEESSANQSKFVRSDVRQKENNPQIFNDSGMDSNSKSSHIPAVKSSQGFMQFRLNQPNYNQRIEKEHIDAECGDKETVRQVRESKCSTQALYIEHFGKSIENNSVEEERDENFPQTPETPSFLRTPEALKTPESMEKMQFPKSPFFEITKNATSEGHKQKDSPGFSFLMSYTSRSPGLNLFDSSVSDSEISSDQFNEHYSAVNLNPSSSQQGIGNLFGKSEGEDAFTFSFSSDSSHTFGAGKDDFSFPFSFEQDPSTMTSSSSKDFSSSQNKTQFMFF

- binding [3]: binds
B4: GFP-SYCP1 (protein, UniProt Q62209 1-993)
chain: MEKQKPFTLFVPPRLSSSQVSAVKPQTAGGDSNYFKTANKCTEGDFGVPFTMSSRENIDKDPAFQKLSILPMLEQVANSGSCHYQEGVNDSDFENSEPMSRLYSKLYKEAEKIKKWKVSIESELKQKENKLQENRKIIEAQRKAIQELQFENEKVSLKLEEEIQENKDLIKENNATIHWCNLLKETCARSAEKTNKYEYEREETRQVYVDLNSNIEKMILAFEELRVQAENARLEMHFKLKEDHEKIQHLEEEYQKEVNNKENQVSELLIQSAEKENKMKDLTFLLEESRDKANQLEEKTKLQDENLKELSEKKDHLTSELEDIKMSMQRSMSTQKALEEDLQIATKTISQLTEVKEAQMEELNKAKTTHSFVVTELKATTCTLEELLRTEQQRLEKNEDQLKLITVELQKKSNELEEMTKFKNNKEVELEELKNILAEDQKLLDEKKQVEKLAEELQEKEQELTFLLETREKEVHDLQEQVTVTKTSEQHYLKQVEEMKTELEKEKLKNTELTASCDMLLLENKKFVQEASDMALELKKHQEDIINCKKQEERLLKQIENLEEKEMHLRDELESVRKEFIQQGDEVKCKLDKSEENARSIECEVLKKEKQMKILESKCNNLKKQVENKSKNIEELHQENKTLKKKSSAEIKQLNAYEIKVSKLELELESTKQRFEEMTNNYQKEIENKKISEGKLLGEVEKAKATVDEAVKLQKEIDLRCQHKIAEMVALMEKHKHQYDKIVEERDSELGLYKNREQEQSSAKIALETELSNIRNELVSLKKQLEIEKEEKEKLKMAKENTAILKDKKDKKIQASLLESPEATSWKFDSKTTPSQNISRLSSSMDSGKSKDNRDNLRASAKSILPTTVTKEYTVKTPTKKSIYQRENKYIPTGGSNKKRKTAFEFDVNSDSSETADLLSLVSEEDVSNRLYDNNPPDSHLLVKTPKQTPLSLSTPASFMKFGSLKKMREDRWTTIAKIDRKRRLKEAEKLFS

- binding [3]: binds
B5: GFP-SYCE3 (protein, UniProt B5KM66 1-88)
chain: MADSDPGERSYDNMLKMLSDLNKDLEKLLEEMEKISVQATWMAYDMVVMRTNPTLAESMRRLEDAFLNCKEEMEKNWQELLTETKRKQ

- binding [3]: no binding
B6: GFP-SYCE1 (protein, UniProt Q9D495 1-329)
chain: MATRPQPLGMEPEGSADLLHGPEGARGQYGSTQKIEDLMDMVKKLQKVGSLEPRIEVLINRINEVQQAKKKASEELGEAQTVWDNLQKELDLLREEKVRLKDILNRKEETLRIMQLHCQEKESEAQRKHSMLQECKERISFLNSQIDKEKAKLRKLRLDFEEHLETLMSQHKDTLEFHKPEHLTKEMCVLDSSKEQLLKEEKLMKVKLEDVRQRLCALGGPEGSSSLIEGLFLRSHEAAAAMQMFKDENKKAEEFLEAAAQQHEQLQQRCHQLQQKRQRLKEELEKHGVQILAHSTQNEEDSSWRMASPKPVEVHEETAQDQERPSSRT

- binding [3]: binds
B7: GFP-TRIP13 (protein, UniProt Q3UA06 1-432)
chain: MDEAVGDLKQALPCVAESPAVHVEVLQRSGSTAKKEDIKSSVYRLLNRHNIVFGDYVWTEFDDPFLSRNVQSVSIVDTELKAKDPQPIDLSACTIALHIFQLNEEGPSSENLDEETENIIAASHWVLPAAEFHGLWDSLVYDVEVKSHLLDYVMTTVLFSDKNVDSNLITWNRVVLLHGPPGTGKTSLCKALAQKLTIRLSSRYRYGQLIEINSHSLFSKWFSESGKLVTKMFQKIQDLIDDKEALVFVLIDEVESLTAARNACRAGAEPSDAIRVVNAVLTQIDQIKRHSNVVILTTSNITEKIDVAFVDRADIKQYIGPPSAAAIFKIYLSCLEELMKCQIIYPRQQLLTLRELEMIGFIENNVSKLSLLLSEISRKSEGLSGRVLRKLPFLAHALYIQAPSVTIEGFLQALSLAVDKQFEEKKKLSAYV

— PMC6726247
